Source: publication PMC4336329 (PLoS ONE, 2015)
The whole screen tested about 310,000 compounds, of which about 2,200 (0.71%) showed an effect of 50% or more. Effects have a minus sign here. Some of the results follow.

What follows are compounds tested against human ether-à-go-go-related gene (hERG) potassium channel (human, UniProt Q12809) (assay: primary screen, population patch clamp on CHO cells stably expressing hERG).
Chain of human ether-à-go-go-related gene (hERG) potassium channel (Q12809 whole entry, looked up): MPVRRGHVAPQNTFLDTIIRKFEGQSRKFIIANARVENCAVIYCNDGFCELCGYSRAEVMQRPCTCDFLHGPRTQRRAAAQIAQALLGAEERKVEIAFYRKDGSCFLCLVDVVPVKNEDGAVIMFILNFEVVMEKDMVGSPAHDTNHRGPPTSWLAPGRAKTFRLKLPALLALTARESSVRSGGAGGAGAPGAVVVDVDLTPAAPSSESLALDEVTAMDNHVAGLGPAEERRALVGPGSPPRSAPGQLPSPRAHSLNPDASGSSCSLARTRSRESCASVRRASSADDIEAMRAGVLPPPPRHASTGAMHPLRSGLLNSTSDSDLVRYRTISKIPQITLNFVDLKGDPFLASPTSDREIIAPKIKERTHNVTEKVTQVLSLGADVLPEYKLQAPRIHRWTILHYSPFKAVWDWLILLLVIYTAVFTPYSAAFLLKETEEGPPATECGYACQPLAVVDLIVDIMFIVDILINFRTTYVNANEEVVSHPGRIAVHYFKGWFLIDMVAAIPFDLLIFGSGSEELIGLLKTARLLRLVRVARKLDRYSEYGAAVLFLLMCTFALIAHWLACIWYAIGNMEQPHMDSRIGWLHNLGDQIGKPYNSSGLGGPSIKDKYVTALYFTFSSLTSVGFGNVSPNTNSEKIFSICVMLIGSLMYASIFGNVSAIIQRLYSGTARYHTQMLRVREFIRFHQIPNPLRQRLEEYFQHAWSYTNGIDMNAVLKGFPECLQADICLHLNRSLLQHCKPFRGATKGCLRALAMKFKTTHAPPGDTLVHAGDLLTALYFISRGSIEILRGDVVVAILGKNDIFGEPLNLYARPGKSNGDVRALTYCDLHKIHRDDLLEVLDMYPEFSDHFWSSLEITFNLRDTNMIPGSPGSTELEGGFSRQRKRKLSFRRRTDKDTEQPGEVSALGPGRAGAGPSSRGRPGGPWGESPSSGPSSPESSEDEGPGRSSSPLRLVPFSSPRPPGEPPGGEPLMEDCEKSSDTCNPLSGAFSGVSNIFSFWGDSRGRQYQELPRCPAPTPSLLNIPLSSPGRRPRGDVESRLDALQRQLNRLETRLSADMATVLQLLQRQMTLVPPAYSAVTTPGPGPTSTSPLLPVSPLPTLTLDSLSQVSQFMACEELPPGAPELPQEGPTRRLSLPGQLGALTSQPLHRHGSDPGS

Row | Structure (SMILES) | hERG current change (%, negative = inhibition) at 1uM [%]
1 | CSCCC(NC(=O)c1cc(S(=O)(=O)N2CCOCC2)ccc1F)c1nc2ccccc2[nH]1 (stereo not drawn) | 14.1
2 | Cc1ccccc1NC(=O)c1cc(S(=O)(=O)Nc2cccc(C(=O)O)c2)ccc1Cl | 16.5
3 | CC(Sc1ncnc2ccccc12)C(=O)Nc1ccc2c(c1)OCO2 (stereo not drawn) | 7.54
4 | CCOC(=O)CNC(=O)c1cc(C)oc1C | 3.45
5 | COc1ccc(Br)cc1S(=O)(=O)N1CCN=C1c1ccccc1 | 5.74
6 | CCOC(=O)C1CCN(S(=O)(=O)c2ccc(CN3C(=O)c4cccnc4C3=O)cc2)CC1 | 11.3
7 | Cc1cnc(C(=O)OC(C(=O)Nc2cc(C(F)(F)F)ccc2Cl)c2ccccc2)cn1 (stereo not drawn) | -14.8
8 | O=C(Nc1cccc(Cl)c1)c1ccc(F)c(S(=O)(=O)NCc2cccs2)c1 | 4.46
9 | CCc1ccc(NC(=O)c2noc3c2CCc2ccccc2-3)cc1 | -3.55
10 | CCOc1ccccc1NC(=O)NCCC1=CCCCC1 | -4.85
11 | NC(=O)c1ccc(NC(=O)C#Cc2ccccc2)cc1 | 14.7
12 | O=C(COc1cccc2cccnc12)N/N=C/c1ccc(O)cc1 | 9.1
13 | O=C(NCc1cccc(Cl)c1)C1CCC(=O)N(CCN2CCOCC2)C1 (stereo not drawn) | 25.2
14 | CC(C)=C1C2C=CC1C1C(=O)N(c3ccc4c(c3)OCO4)C(=O)C21 (stereo not drawn) | 8.96
15 | Cc1ccc(OCCN2C(=O)C(=O)c3cccc(C)c32)cc1 | 4.13
16 | O=C(COC(=O)Cc1cccs1)Nc1cccc(S(=O)(=O)N2CCOCC2)c1 | 1.95
17 | Cc1cccc(CSc2cn(CC(=O)N3CCOCC3)c3ccccc23)c1 | 5.07
18 | Cc1nn(CC(=O)N2CC(=O)Nc3ccccc32)c(C)c1[N+](=O)[O-] | 21.8
19 | CCN(CCCNC(=O)C1CCC(=O)N1Cc1ccccc1Cl)c1cccc(C)c1 (stereo not drawn) | -9.57

Row | Structure (SMILES) | hERG current change (%, negative = inhibition) at 1uM [%]
20 | CN(c1ccc(OCC(=O)N2CCOCC2)cc1)S(=O)(=O)c1ccc(Cl)cc1 | 7.86
21 | Cc1cc(=O)oc2cc(OCCSc3nnc(-c4ccccc4)o3)ccc12 | 7.17
22 | CCCc1cc(=O)[nH]c(SCC(=O)N(C)CC(=O)Nc2ccc(C)cc2)n1 | -0.836
23 | COc1ccc(CCCc2nnc(SCC(=O)Nc3ccc(OC)cc3)o2)cc1 | 15.1
24 | O=C(NCCS(=O)(=O)c1ccc(Cl)cc1)c1ccc(F)cc1 | 5.27
25 | O=C(Nc1c(C(=O)N2CCOCC2)cnn1-c1ccccc1Cl)c1ccco1 | 4.04
26 | CN(c1ccccc1)S(=O)(=O)c1ccc(Cl)c(C(=O)Nc2nc3ccccc3[nH]2)c1 | 10.8
27 | Cc1ccc(C2NC(=O)c3ccccc3O2)cc1 (stereo not drawn) | 11.8
28 | O=C(C[n+]1ccccc1)c1ccc(NC(=O)c2ccccc2)cc1.[I-] | 7.29
29 | CC1(C)CC(=O)C2=C(C1)N(Cc1ccco1)C(=O)C2(NC(=O)C1CCCCC1)C(F)(F)F (stereo not drawn) | 5.43
30 | COc1ccc(OC)c(NC(=O)CSc2nnc(C)n2Cc2ccccc2)c1 | -3.69
31 | CCOc1ccc(C(=O)NC(Cc2ccccc2)C(=O)OC)cc1 (stereo not drawn) | 4.27
32 | CCCN1CCN(C(=O)c2cc(COc3ccc(F)cc3F)on2)CC1 | 9.53
33 | CCCCN(CC)Cc1ccc(CNC(=O)Nc2ccc(Cl)cc2)o1 | -6.02
34 | c1csc(C(c2nnnn2C2CCCCC2)N2CCCC3(CCCCC3)C2)c1 (stereo not drawn) | 16.9
35 | Cc1cc(C)n2ncnc2n1 | 7.65
36 | Cc1c(CC(=O)O)c(=O)oc2cc3c(cc12)CCC(C)(C)O3 | 10.4
37 | CC(=O)NCCOc1nc(N(C)C)nc(N(C)C)n1 | 19.9
38 | CCOC(=O)C(=CNc1ccc(N2CCOCC2)cc1)C(=O)OCC | 12.2

Row | Structure (SMILES) | hERG current change (%, negative = inhibition) at 1uM [%]
39 | CCOC(=O)C1CN(S(=O)(=O)c2ccc(C)cc2)C1 | 8.49
40 | Nn1c(CN2CCCCC2)nc2ccccc2c1=O | 2.79
41 | COc1ccc2oc(C(=O)OCC(=O)Nc3ccc(N4CCOCC4)cc3)c(C)c2c1 | 15.1
42 | Cc1ccc2oc(=O)n(CC(=O)N3CCOCC3)c2c1 | 9.29
43 | Cc1ccc(OCC(=O)NCCNC(=O)COc2ccc(C)cc2)cc1 | 13
44 | COc1cccc(NC(=O)NNC(=O)COc2ccc3ccccc3c2)c1 | 8.61
45 | COc1ccc(-n2cccc2C=O)cc1OC | 8.13
46 | CCOc1ccc(-c2nnc(-c3ccc(OC)cc3)o2)cc1 | 3.85
47 | Cc1nc(N2CCN(C(=O)c3ccc(Cl)cc3)CC2)c(C#N)c2c1COC(C)(C)C2 | -7.98
48 | CCc1cc(=O)oc2c3c(cc(OCC(=O)NCCCOC)c12)OC(C)(C)CC3 | 9.73
49 | Cc1ccc(/C=N/N2C(=S)SC(C)(C)C2N(O)C(=O)Nc2ccc([N+](=O)[O-])cc2)cc1 (stereo not drawn) | 11.4
50 | Cc1nnc(SCC(=O)NC(C)(C)C)n1C1CCCCC1 | 6.2
51 | CN(Cc1ccccc1)S(=O)(=O)c1ccc(OCC(=O)NCc2ccccn2)cc1 | -1.65
52 | Cc1ccc(C(=O)NCCN(C)C)cc1C | 14.8
53 | O=C(O)COc1ccccc1/C=N/NC(=O)CN1CCN(Cc2ccc(Cl)cc2)CC1 | 9.59
54 | CCOc1ccc(N(C(=O)c2cnccn2)C(C(=O)NC2CCCCC2)c2ccc(O)cc2)cc1 (stereo not drawn) | 12.4
55 | Cc1ccc(NC(=O)c2ccc3c(c2)N(CC(=O)NC(C)C)C(=O)C(C)(C)O3)cc1 | 15
56 | COc1ccc(CC(=O)OCc2nnc(-c3ccccc3)o2)cc1 | 12.5
57 | Cc1ccccc1NP(=O)(Oc1ccccc1F)Oc1ccccc1F | 13.9
